{
  "source": "the antibiotic and cytotoxicity screens of Wong et al. (2023)",
  "note": "Some of the results follow.",
  "data": [
    {"tested_on": "HSkMC (human skeletal muscle cells)", "assay": "cytotoxicity call (relative viability < 0.9)", "conditions": "10 µM", "values": [
      {"smiles": "CC(=O)N1Cc2cc(C(=O)NCc3cc(F)cc(F)c3)nc(-c3cccc(C4=CCCC4)c3)c2[C@H]1CCO", "cytotoxicity call": "inactive"},
      {"smiles": "CN1CCN(C(=O)C[C@H]2CC[C@H]3[C@@H](COC[C@@H](O)CN3C(=O)C3CCOCC3)O2)CC1", "cytotoxicity call": "inactive"},
      {"smiles": "C[C@H](CO)N1C[C@H](C)[C@@H](CN(C)S(=O)(=O)c2cccs2)Oc2ccc(NS(=O)(=O)c3cccs3)cc2CC1=O", "cytotoxicity call": "inactive"},
      {"smiles": "COc1ccc(NC(=O)N(C)C[C@H]2OCCCC[C@@H](C)Oc3ccc(NS(=O)(=O)c4ccc(C)cc4)cc3C(=O)N([C@@H](C)CO)C[C@@H]2C)cc1", "cytotoxicity call": "inactive"},
      {"smiles": "CN(C)c1cc(NC(=O)CNC(C)(C)C)c(O)c2c1C[C@H]1C[C@H]3[C@H](N(C)C)C(=O)C(C(N)=O)=C(O)[C@@]3(O)C(=O)[C@H]1C2=O", "cytotoxicity call": "inactive"},
      {"smiles": "COc1ccc(CN(C)C[C@@H]2OCCCC[C@H](C)Oc3ccc(NS(=O)(=O)c4ccc(C)cc4)cc3C(=O)N([C@@H](C)CO)C[C@H]2C)cc1", "cytotoxicity call": "inactive"},
      {"smiles": "C#CCN(O[C@@H](/C=C/[C@@H](O)CCn1cc(-c2ccc(C(=O)NO)s2)nn1)C1CC1)[C@@H](Cc1ccccc1)C(=O)OC", "cytotoxicity call": "inactive"},
      {"smiles": "C=COCCCCO", "cytotoxicity call": "inactive"},
      {"smiles": "C[C@@H]1CCCCO[C@@H](CN(C)S(C)(=O)=O)[C@@H](C)CN([C@H](C)CO)C(=O)c2cc(NS(=O)(=O)c3ccccc3)ccc2O1", "cytotoxicity call": "inactive"},
      {"smiles": "CC(=O)N1[C@H](C(=O)N2CCc3ccccc3C2)[C@@H](CO)[C@@H]2Cn3c(cccc3=O)[C@@H]21", "cytotoxicity call": "inactive"},
      {"smiles": "C[C@@H]1CCCCO[C@H](CN(C)C(=O)Nc2ccccc2)[C@H](C)CN([C@@H](C)CO)C(=O)c2cc(NS(=O)(=O)c3ccc(F)cc3)ccc2O1", "cytotoxicity call": "inactive"},
      {"smiles": "C[C@H](CO)N1C[C@H](C)[C@H](CN(C)Cc2ccc(-c3ccccc3)cc2)Oc2ccc(NC(=O)CCC(F)(F)F)cc2C1=O", "cytotoxicity call": "inactive"},
      {"smiles": "Cc1cn(CCN2CCN(c3ccccc3-c3cc(C#N)cc(C(=O)NCCCN4CCCC4)c3)CC2)c2ccccc12", "cytotoxicity call": "active"},
      {"smiles": "C[C@@H]1CN([C@@H](C)CO)C(=O)c2cc(N(C)C)ccc2O[C@@H](C)CCCCO[C@@H]1CN(C)S(=O)(=O)c1cn(C)cn1", "cytotoxicity call": "inactive"},
      {"smiles": "CCC(C)C1OC2(C=CC1C)CC1CC(CC=C(C)C(OC3CC(OC)C(OC4CC(OC)C(NC(C)=O)C(C)O4)C(C)O3)C(C)C=CC=C3COC4C(O)C(C)=CC(C(=O)O1)C34O)O2", "note": "(stereo not drawn)", "cytotoxicity call": "inactive"},
      {"smiles": "Cc1ccc(O)c(-c2cc(-c3ccc(C(C)(C)C)cc3)[nH]n2)c1", "cytotoxicity call": "inactive"},
      {"smiles": "Cc1onc(C(=O)N2CCOCC2)c1[N+](=O)[O-]", "cytotoxicity call": "inactive"},
      {"smiles": "COc1ccc2c3c([nH]c2c1)[C@H](CO)N(Cc1ccc(cc1)Cl)C[C@]13CCN(CCc2ccccc2)CC1", "cytotoxicity call": "inactive"},
      {"smiles": "O=C(C[C@H]1C[C@@H]2c3cc(NS(=O)(=O)c4ccc(F)cc4)ccc3O[C@@H]2[C@@H](CO)O1)NCc1cccc(F)c1", "cytotoxicity call": "inactive"},
      {"smiles": "C[C@H](CO)N1C[C@H](C)[C@@H](CN(C)S(=O)(=O)c2cn(C)cn2)Oc2ccc(NS(=O)(=O)c3cn(C)cn3)cc2C1=O", "cytotoxicity call": "inactive"},
      {"smiles": "COCC(=O)N1CCO[C@@H]2[C@H]1CC[C@H]2OC", "cytotoxicity call": "inactive"},
      {"smiles": "Cc1ccc(S(=O)(=O)Nc2ccc3c(c2)C(=O)N([C@H](C)CO)C[C@H](C)[C@H](CN(C)C(=O)Nc2ccc(F)cc2)OCCCC[C@H](C)O3)cc1", "cytotoxicity call": "inactive"},
      {"smiles": "C[C@H]1CN([C@@H](C)CO)C(=O)Cc2cc(NC(=O)Nc3cccc4ccccc34)ccc2O[C@H]1CN(C)S(=O)(=O)c1cccs1", "cytotoxicity call": "inactive"},
      {"smiles": "CC[C@@H](C)CCCC(=O)N[C@@H](CCN)C(=O)N[C@H](C(=O)N[C@@H](CCN)C(=O)N[C@H]1CCNC(=O)[C@H]([C@@H](C)O)NC(=O)[C@H](CCN)NC(=O)[C@H](CCN)NC(=O)[C@H](CC(C)C)NC(=O)[C@@H](CC(C)C)NC(=O)[C@H](CCN)NC1=O)[C@@H](C)O", "cytotoxicity call": "inactive"},
      {"smiles": "COc1ccc(CN(C)C[C@@H]2Oc3ccc(NC(=O)Cn4cnnn4)cc3C(=O)N([C@H](C)CO)C[C@H]2C)cc1", "cytotoxicity call": "inactive"},
      {"smiles": "COc1ccc(CN(C)C[C@H]2Oc3ccc(NC(=O)CCCCCC(=O)Nc4ccccc4N)cc3CC(=O)N([C@H](C)CO)C[C@H]2C)cc1", "cytotoxicity call": "inactive"},
      {"smiles": "O=C1O[C@@H](c2ccccc2)[C@@H](c2ccccc2)N2[C@@H](c3ccc(O)cc3)[C@]3(C(=O)Nc4ccccc43)[C@@H](C(=O)N3CCCCCCC3)[C@H]12", "cytotoxicity call": "inactive"},
      {"smiles": "O[C@H]([C@H](O)[C@@H]1CO1)[C@H]1CO1", "cytotoxicity call": "inactive"}
    ]}
  ]
}
